Laboratory results reported in PubChem BioAssay AID1768 (National Center for Advancing Translational Sciences (NCATS), 2009).
In all, about 270,000 compounds went through this assay and about 620 (0.23%) were called active. The inconclusive results got no clear call from the source; some entries with a clear call stand among them for comparison. Calls come from the whole dose curve; as a rule, active = well fitted inhibition curve with a large enough effect in the polarisation, with a control signal flat (not every such curve was filed as active); inconclusive = small, poorly fitted or top-dose-only effect, or effect the other way, or a change in a side signal; inactive = no such curve, though single readings can be large or run the other way; the % refers to the polarisation. Potencies beside an inconclusive call are fits to weak or partial responses and may not hold up. A note “side channel” means that the fit belongs to a control or component signal, not to the main read-out.

These compounds were tested against Menin (Homo sapiens) (UniProt O00255) (assay: qHTS Assay for Inhibitors Targeting the Menin-MLL Interaction in MLL Related Leukemias: Competition With Texas Red Labeled MLL-derived Mutant Peptide). Details: fluorescence polarization; FP activity change, negative = inhibition: at 61.6 µM (top of the series).
Sequence of UniProt O00255 (O00255 whole entry, looked up): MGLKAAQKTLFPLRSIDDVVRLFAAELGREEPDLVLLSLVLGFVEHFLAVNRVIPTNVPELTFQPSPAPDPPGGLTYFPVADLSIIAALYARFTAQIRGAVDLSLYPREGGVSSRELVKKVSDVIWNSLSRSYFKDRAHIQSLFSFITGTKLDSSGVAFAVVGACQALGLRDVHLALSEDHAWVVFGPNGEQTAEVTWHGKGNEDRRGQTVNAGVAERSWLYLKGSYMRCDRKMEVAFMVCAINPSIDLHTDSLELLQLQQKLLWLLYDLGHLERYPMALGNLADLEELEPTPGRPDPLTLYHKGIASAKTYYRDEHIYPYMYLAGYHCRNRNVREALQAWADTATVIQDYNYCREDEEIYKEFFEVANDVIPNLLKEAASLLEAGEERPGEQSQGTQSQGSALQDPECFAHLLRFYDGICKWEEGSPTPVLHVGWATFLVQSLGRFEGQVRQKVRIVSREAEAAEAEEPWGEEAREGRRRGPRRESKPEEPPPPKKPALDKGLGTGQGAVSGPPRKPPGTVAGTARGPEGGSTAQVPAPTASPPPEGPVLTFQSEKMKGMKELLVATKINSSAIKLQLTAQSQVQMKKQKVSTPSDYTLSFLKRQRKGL
Potency is the fitted concentration of half-maximal effect; tags give direction and shape of the fitted curve or compound fluorescence and quenching.
Throughout, for FP activity change, negative = inhibition: % of control where 0% means no effect.

Compound | Potency | FP activity change, negative = inhibition
NS(=O)(=O)c1cccc(NC(=O)COc2ncnc3c2cnn3-c2ccccc2)c1 | inconclusive: 35.5 µM [inhibitor, single point] | –
CCOC(=O)C1(CCCc2ccccc2)CCN(Cc2cn(CC)nc2C)CC1 | inconclusive: 8.91 µM [fluorescent, side channel, partial curve] | –
Cc1ccc(NC(=S)NCCC2=CCCCC2)cc1 | inconclusive: 39.8 µM [fluorescent, single point] | –
Cc1ccc(NC(=O)CSc2cn[nH]n2)cc1 | inconclusive: 2.82 µM [inhibitor, partial curve] | –
N#CCc1nn2c3c(cnc2c1C#N)C(=O)CCC3 | inconclusive: 0.708 µM [quencher, side channel, full curve, poor fit] | –
Cc1cc(C)nc(N2CCN(c3ncnc4c3cnn4Cc3ccc(Cl)cc3Cl)CC2)n1 | inconclusive: 3.16 µM [fluorescent, side channel, single point] | –
Cc1ccc(C2C(/C=C3/SC(=S)NC3=O)=C(c3cccs3)Oc3ccccc32)cc1 (stereo not drawn) | inconclusive: 17.8 µM [quencher, side channel, partial curve] | –
O=C(Nc1ccc(OC(F)(F)F)cc1)C1=NCCN1 | inconclusive: 39.8 µM [inhibitor, single point] | –
CN1c2ccccc2C(O)=C(C(=S)Nc2ccccc2)S1(=O)=O | inconclusive: 39.8 µM [quencher, side channel, single point] | –
O=C1NC(=O)/C(=C/c2cccc3ccccc23)S1 | inconclusive: 39.8 µM [quencher, side channel, single point] | –
Cc1ccc(F)cc1-c1ccc(C(=O)N=C(N)N)o1 | – | inactive: 5%
O=C1c2ccccc2C(=O)N1/N=C/c1ccc(O)c(O)c1 | – | inactive: 6.25%
Clc1ccc2[nH]c3c(c2c1)CCc1cn[nH]c1-3 | inconclusive: 14.1 µM [quencher, side channel, partial curve] | –
CC(C)c1cc(C(=O)N/N=C/c2ccoc2)c(O)c(C(C)C)c1 | inconclusive: 28.2 µM [quencher, side channel, single point] | –
Fc1ccccc1-c1nnc2c3ccccc3nc(N3CCOCC3)n12 | inconclusive: 35.5 µM [fluorescent, side channel, single point] | –
c1csc(-c2nnsc2-c2nc3ccccc3[nH]2)c1 | inconclusive: 17.8 µM [quencher, side channel, partial curve] | –
Cc1nnn(-c2nonc2N)c1C(=O)N/N=C/c1cccc2ccccc12 | inconclusive: 15.8 µM [quencher, side channel, partial curve] | –
Cc1ccc2c(c1)N(C(=O)c1ccco1)C(C)(C)c1ssc(=S)c1-2 | inconclusive: 39.8 µM [quencher, side channel, single point] | –
Cc1cc(F)ccc1S(=O)(=O)Nc1ccccc1C(=O)NCc1cccnc1 | inconclusive: 12.6 µM [quencher, side channel, partial curve] | –
CCCCn1nnnc1SCC(=O)c1ccccc1F | inconclusive: 7.94 µM [inhibitor, partial curve] | –

Compound | Potency | FP activity change, negative = inhibition
CSc1ccc(CN(C)C(=O)C23CC4CC(CC(Cl)(C4)C2)C3)cc1 | inconclusive: 22.4 µM [inhibitor, single point] | –
COc1ccc(OC)c(N/C=C/C(=O)c2ccc(OC)c(OC)c2)c1 | inconclusive: 8.91 µM [quencher, side channel, partial curve] | –
O=C(O)CCN1C(=O)/C(=C/c2ccc(-c3nc4ccccc4s3)o2)SC1=S | inconclusive: 22.4 µM [quencher, partial curve] | –
Clc1cncc(Cl)c1NNc1c2ccccc2nc2ccccc12 | inconclusive: 10 µM [quencher, side channel, partial curve] | –
CCN1C(=O)C(CC(=O)Nc2ccc(OC)cc2)N(CCc2ccc(F)cc2)C1=S (stereo not drawn) | inconclusive: 11.2 µM [quencher, side channel, partial curve] | –
O=C(COC(=O)c1ccccc1Cl)Nc1nccs1 | inconclusive: 4.47 µM [inhibitor, full curve, poor fit] | –
Nc1ccc(CSc2ccc(Cl)cc2)cc1 | inconclusive: 22.4 µM [quencher, side channel, single point] | –
COc1ccc2[nH]c(C)c(CCN(Cc3cccs3)C(=S)Nc3ccccc3)c2c1 | inconclusive: 22.4 µM [quencher, side channel, partial curve] | –
COc1ccc(NC(=O)c2cc(C)on2)cc1OC | – | inactive: 1.7%
Cc1c([N+](=O)[O-])cc(C(=O)Nc2ccc(NC(=O)c3ccco3)cc2)cc1[N+](=O)[O-] | inconclusive: 3.98 µM [quencher, side channel, partial curve] | –
Cn1nc(C(=O)Nc2cccc(Cl)c2)cc1C(=O)Nc1cccc(Cl)c1 | inconclusive: 39.8 µM [inhibitor, single point] | –
Cc1ccccc1-c1cncnc1NCc1cccs1 | – | inactive: -4.3%
CCOC(=O)c1c(-c2ccc(C)cc2)csc1/N=C/N(C)C | – | inactive: -7.3%
Cc1cc(C)c(OCC(=O)Nc2ccccc2N2CCOCC2)c(C)c1 | inconclusive: 17.8 µM [fluorescent, side channel, partial curve] | –
CCOC(=O)Cc1cc(-c2ccc(O)cc2)nc2ccc3ccccc3c12 | inconclusive: 25.1 µM [quencher, side channel, partial curve] | –
O=C(Nc1ccc(F)cc1)Nc1nnc(Cc2ccccc2F)s1 | inconclusive: 39.8 µM [inhibitor, single point] | –
CN(C)c1ccc(C2CC(c3cccc(NS(C)(=O)=O)c3)=NN2C(=O)c2ccccc2)cc1 (stereo not drawn) | inconclusive: 25.1 µM [quencher, side channel, partial curve] | –
CCCCC(=O)O[C@@]1(C(=O)CO)C(C)CC2C3CCC4=CC(=O)C=C[C@@]4(C)[C@]3(F)C(O)C[C@]21C (stereo partly drawn) | inconclusive: 8.91 µM [inhibitor, single point] | –
CCn1c(C)nc2cc(C(=O)N/N=C/c3cccc(O)c3O)ccc21 | inconclusive: 22.4 µM [inhibitor, single point] | –
O=C(Nc1cccc(S(=O)(=O)Nc2ccccc2F)c1)c1ccc2ccccc2n1 | inconclusive: 20 µM [quencher, side channel, partial curve] | –

Compound | Potency | FP activity change, negative = inhibition
O=C(CSc1nc(-c2ccccc2)nc2ccccc12)Nc1cccc(C(=O)O)c1 | inconclusive: 39.8 µM [quencher, side channel, single point] | –
O=C(CSC(=S)N1CCCCC1)Nc1nc(-c2ccccc2)c(-c2ccccc2)o1 | inconclusive: 15.8 µM [inhibitor, partial curve] | –
COc1ccc(/C(O)=C2/C(=O)C(=O)N(c3ccccn3)C2c2cccc(Cl)c2)cc1 (stereo not drawn) | inconclusive: 28.2 µM [quencher, side channel, single point] | –
CC1=NN(Cc2ccccc2)C(=O)/C1=C/c1ccc(N(C)C)cc1 | inconclusive: 31.6 µM [quencher, side channel, partial curve] | –
O=C(/C=C/c1ccc(Cl)cc1)Nn1c(-c2cccs2)nc2ccccc2c1=O | inconclusive: 39.8 µM [inhibitor, single point] | –
O=C(N/N=C/c1cc([N+](=O)[O-])ccc1O)NC12CC3CC(CC(C3)C1)C2 | inconclusive: 11.2 µM [quencher, side channel, partial curve] | –
CSc1ccccc1NC(=O)CN1CCN(c2ccccn2)CC1 | inconclusive: 12.6 µM [inhibitor, partial curve] | –
Cc1ccc2cc(C#N)c(N3CCN(C(=O)c4ccccc4)CC3)nc2c1 | inconclusive: 5.62 µM [inhibitor, single point] | –
COc1ccc(C2NN=C(c3c[nH]c4ccccc34)C2O)cc1 (stereo not drawn) | inconclusive: 10 µM [quencher, side channel, partial curve] | –
CNc1c(NS(=O)(=O)c2ccc(Cl)s2)c(=O)oc2ccccc12 | inconclusive: 35.5 µM [inhibitor, single point] | –
CCC(C)NC(=O)c1cc2cc3ccc(OC)cc3nc2o1 (stereo not drawn) | inconclusive: 39.8 µM [quencher, side channel, single point] | –
O=C(c1ccccc1F)N1CCN(C2CCC(c3ccccc3)CC2)CC1 (stereo not drawn) | inconclusive: 3.55 µM [fluorescent, side channel, full curve] | –
COc1ccc(Cl)cc1NC(=O)Nc1cnccn1 | inconclusive: 28.2 µM [inhibitor, single point] | –
Cc1cc(NC(=O)CSc2nc3cc(C(=O)NCCCOC(C)C)ccc3c(=O)n2Cc2ccco2)no1 | inconclusive: 39.8 µM [fluorescent, side channel, single point] | –
O=[N+]([O-])c1ccc(/C=N/n2c(COc3ccccc3)n[nH]c2=S)cc1 | inconclusive: 17.8 µM [quencher, side channel, partial curve] | –
CN=c1scc(-c2ccc([N+](=O)[O-])cc2)n1/N=C/c1ccco1 | inconclusive: 17.8 µM [quencher, side channel, single point] | –
CC(=O)Nc1ccc(S(=O)(=O)N2CCN(C(C)CCc3ccccc3)CC2)cc1 (stereo not drawn) | inconclusive: 39.8 µM [quencher, side channel, single point] | –
Cc1ccccc1NC(=S)NC(NC(=O)c1ccccc1C)C(Cl)(Cl)Cl (stereo not drawn) | inconclusive: 7.94 µM [quencher, side channel, full curve] | –
